Consider six substances from paper PMC5771398, “Structural basis for assembly of the CBF3 kinetochore complex” (The EMBO Journal, 2017).

By UniProt entry, the sequences of proteins in these tests, tags left out. Where a name states a change or a piece, a line headed by the entry shows the natural chain unless it says otherwise. Chains listed by the source or under a name are the forms on record and can include a tag or linker.
UniProt P40969: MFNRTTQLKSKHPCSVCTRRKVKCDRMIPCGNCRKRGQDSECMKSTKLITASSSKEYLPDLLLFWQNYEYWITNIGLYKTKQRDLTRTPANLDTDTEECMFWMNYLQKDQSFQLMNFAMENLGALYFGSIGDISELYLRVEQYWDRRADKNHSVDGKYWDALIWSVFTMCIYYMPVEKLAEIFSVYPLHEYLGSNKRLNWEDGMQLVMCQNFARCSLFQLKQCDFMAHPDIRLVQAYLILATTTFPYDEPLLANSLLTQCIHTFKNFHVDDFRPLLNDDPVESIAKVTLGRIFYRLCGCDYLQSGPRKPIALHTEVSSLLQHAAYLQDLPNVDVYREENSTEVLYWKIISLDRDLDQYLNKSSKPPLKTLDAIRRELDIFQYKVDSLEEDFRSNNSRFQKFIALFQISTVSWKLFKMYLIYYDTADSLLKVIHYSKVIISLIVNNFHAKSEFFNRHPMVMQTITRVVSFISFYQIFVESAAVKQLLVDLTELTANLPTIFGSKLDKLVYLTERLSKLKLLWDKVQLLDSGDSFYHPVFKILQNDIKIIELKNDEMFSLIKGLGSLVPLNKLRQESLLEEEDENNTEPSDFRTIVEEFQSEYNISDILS
UniProt P35203: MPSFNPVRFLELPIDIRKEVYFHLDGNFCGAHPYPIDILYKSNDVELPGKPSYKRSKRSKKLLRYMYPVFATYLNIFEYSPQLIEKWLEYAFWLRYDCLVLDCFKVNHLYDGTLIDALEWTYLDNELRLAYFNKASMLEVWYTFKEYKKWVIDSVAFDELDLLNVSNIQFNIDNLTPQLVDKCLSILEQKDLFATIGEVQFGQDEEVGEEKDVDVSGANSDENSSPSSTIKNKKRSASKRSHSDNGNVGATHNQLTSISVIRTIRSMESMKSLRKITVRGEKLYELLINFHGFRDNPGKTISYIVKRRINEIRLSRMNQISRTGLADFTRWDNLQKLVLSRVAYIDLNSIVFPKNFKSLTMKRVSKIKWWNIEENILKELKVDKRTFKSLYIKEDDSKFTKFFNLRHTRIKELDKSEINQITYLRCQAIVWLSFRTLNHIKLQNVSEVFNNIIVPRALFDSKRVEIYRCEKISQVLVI
UniProt P52286: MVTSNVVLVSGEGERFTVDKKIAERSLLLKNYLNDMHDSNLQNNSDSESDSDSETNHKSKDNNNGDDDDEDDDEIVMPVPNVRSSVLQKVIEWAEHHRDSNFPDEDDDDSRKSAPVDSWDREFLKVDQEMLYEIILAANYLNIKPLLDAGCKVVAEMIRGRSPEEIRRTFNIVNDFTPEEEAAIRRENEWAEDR
Skp1Δ (P52286, form named): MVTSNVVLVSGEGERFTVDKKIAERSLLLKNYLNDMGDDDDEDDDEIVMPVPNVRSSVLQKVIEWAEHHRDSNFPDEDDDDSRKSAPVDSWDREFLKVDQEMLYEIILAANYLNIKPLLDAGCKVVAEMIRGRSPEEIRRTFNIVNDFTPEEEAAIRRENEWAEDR

Results are given in words; binding and its absence hold for the method and conditions named. For some of these results: Binding seen in cells or lysates may run through a third protein. Some results given as binding are weak or reduced against the parent protein; the word gives no strength.

The target of experiment [1] is Cep3 (S. cerevisiae) (UniProt P40969). The experiment can be described thus: SEC-MALS; 200 μg of core complex on Superose 6 Increase 10/300 coupled to a Wyatt Dawn 8+ MALS system; both purified. On the technique in general: In gel filtration, larger molecules generally elute earlier.
In experiment [2] the target is Cep3, triple HA-tagged with C-terminal double-Strep tag (S. cerevisiae) (UniProt P40969). Description: pull-down; all four CBF3 subunits overexpressed in S. cerevisiae, all but Ctf13 HA-tagged; lysates on a StrepTactin column (Strep tag on Cep3), eluted with biotin; SDS-PAGE/Coomassie and anti-HA Western blot. A general note: Immunoblotting shows a protein as a band on a membrane.

Experiment [3] concerns the target Cep3 (S. cerevisiae) (UniProt P40969). Description: cryo-EM structure; single-particle cryo-EM of the purified core complex at 0.1 mg/ml, 3.6 Å overall; no lambda-phosphatase treatment; both purified.
The next experiment concerns the target Ctf13 (S. cerevisiae) (UniProt P35203). The description is as above.
Experiment [4] concerns the target Cep3 (S. cerevisiae) (UniProt P40969). The experiment can be described thus: co-purification (Strep affinity, heparin, anion exchange, SEC); mutant core complexes co-expressed in S. cerevisiae and purified as complexes with the same procedure as the wild type; Skp1Δ core also seen by negative stain EM; both purified.

In the case of Ctf13 (from UniProt P35203 1-478), the binding entry (in the experiment with Cep3 (S. cerevisiae) [1]; in experiment [2]; with Cep3 (S. cerevisiae) [3]) was “binds” in each case. For Skp1 (from UniProt P52286 1-194), the binding entry with Cep3 (S. cerevisiae) [1], in the experiment with Ctf13 (S. cerevisiae) and with Cep3 (S. cerevisiae) [3] was “binds” in each case.

Take Skp1Δ (from UniProt P52286 1-194): the binding result with Cep3 (S. cerevisiae) [4] is reported as “binds”. “endogenous Skp1 (from UniProt P52286 1-194)”: the binding entry in experiment [2] was “binds”. The same measure, in the same setting: the result for “mutant HA-tagged Skp1 (N139K, Y140K) (from UniProt P52286 1-194)” reads “no binding”.

For “wild-type HA-tagged Skp1 (from UniProt P52286 1-194)”, in experiment [2], the binding result was “binds”.
